PubChem BioAssay AID686978 (National Center for Advancing Translational Sciences (NCATS), 2013)
“And” between values parts separate entries of the source, which are not always exact repeats. Identical values can stand only once. Among all 420,000 compounds or so, about 64,000 (15%) were called active. The inconclusive results got no clear call from the source; some entries with a clear call stand among them for comparison. Calls follow the shape of the dose curve; as a rule, active = well fitted inhibition curve with a large enough effect; inconclusive = small, poorly fitted or top-dose-only effect; inactive = flat fitted curve, though single readings scatter. Potencies beside an inconclusive call are fits to weak or partial responses and may not hold up.
% is scaled to controls: 0 for no effect and ±100 for the full control effect; potency is read from the fitted curve at half-maximal effect; tags tell the direction and shape of the fitted curve.

Assay: qHTS for Inhibitors of human tyrosyl-DNA phosphodiesterase 1 (TDP1): qHTS in cells in absence of CPT; also: nearly all actives have a fitted effect of over 55% in size
Details: DT40 Tdp1-/- hTDP1 cells, no CPT, ATP luminescence, 48 h; activity change, negative = growth inhibition: at 46.2 µM (top of the series) unless noted
How it was run: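 Chicken DT40 Tdp1-/- cells complemented with human TDP1, screened without camptothecin (DMSO vehicle only), 400 cells/well. Compounds pin-transferred, cells incubated at 37 °C for at least 48 hr. Growth read as ATP-dependent luminescence (CellTiter-Glo, 30 min at RT).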
For `Cn1c(=O)c2cc(C(=O)NCCCN3CCN(c4ccccc4F)CC3)sc2c2ccccc21`, the Potency was active: 3.66 µM.
For `COCCOC(=O)c1c(C)oc2ccc(OC(=O)c3ccco3)cc12`, the “activity change, negative = growth inhibition” value was inactive: 11.5%.
In the case of `Cc1onc(-c2ccccc2)c1C(=O)NC1CCC(C)CC1` (stereo not drawn), the Potency is reported as inconclusive: 29.1 µM [inhibitor, single point].
In the case of `Cc1ccc2nc(NC(=O)c3ccccc3F)sc2c1`, the activity change, negative = growth inhibition is reported as inconclusive: -32.2% [inhibitor].
With `COc1ccccc1C(=O)OCC(=O)c1cccc([N+](=O)[O-])c1` the Potency was inconclusive: 20.6 µM [inhibitor, partial curve].
For `O=c1[nH]c(SCc2ccc(Cl)cc2)nc2c1CCC2`, the Potency was inconclusive: 29.1 µM [inhibitor, single point].
With `COc1ccc(NC(=O)CN2C(=O)C(c3ccccc3)=NC23CCCCCC3)cc1` the Potency was inconclusive: 20.6 µM [inhibitor, single point].
In the case of `Cc1ccc(-n2c(=O)c3ccc(C(=O)NCc4ccco4)cc3n(Cc3ccccc3C#N)c2=O)cc1`, the Potency is reported as “inactive and inconclusive: 29.1 µM [inhibitor, single point]”.
In the case of `COc1ccc(Br)c(C(=O)N2CCN(S(=O)(=O)c3cccs3)CC2)c1`, the “activity change, negative = growth inhibition” value is reported as inactive: -5.86%.
For `N#CC1C(=O)NC(=O)C(C#N)C12CCCC(C(F)(F)F)C2` (stereo not drawn), the “activity change, negative = growth inhibition” value was inactive: 3.19%.
With `O=C(OCC1CCNCC1)c1ccc(F)cc1` the “activity change, negative = growth inhibition” value was inactive: 1.68%.
In the case of `CCOC(=O)/C=C/C(=O)N1CCc2ccccc21`, the Potency is reported as inconclusive: 13 µM [inhibitor, single point].
In the case of `CN(/N=C/c1ccccc1)C(=S)c1ccccc1`, the Potency is reported as inconclusive: 29.1 µM [inhibitor, single point].
In the case of `CCN(CC)c1cc2c(cc1F)c(=O)c(S(=O)(=O)c1cccc(C)c1)cn2C`, the Potency is reported as inconclusive: 11.6 µM [inhibitor, partial curve, poor fit].
In the case of `Cc1ccc(-c2cn(-c3cccc(Cl)c3)c(S(=O)(=O)CC(=O)Nc3ccccc3F)n2)cc1`, the Potency is reported as inconclusive: 29.1 µM [inhibitor, single point].
For `Cc1ccc(-n2nc3c(=O)n(CCCC(=O)NCCc4ccccc4Cl)nc(C)c3c2C)cc1`, the Potency was active: 14.6 µM.
For `COc1ccc(/C=C2\CCn3c2nc2ccccc2c3=O)cc1OC`, the Potency was inconclusive: 18.4 µM [inhibitor, partial curve, poor fit].
With `NS(=O)(=O)c1ccc(NC(=O)Nc2ccc(S(N)(=O)=O)cc2)cc1` the “activity change, negative = growth inhibition” value was inactive: 11.2%.
For `O=C(C1CCN(S(=O)(=O)c2cccc3nsnc23)CC1)N1CCc2ccccc2C1`, the Potency was inconclusive: 18.4 µM [inhibitor, single point].
In the case of `CC(C)C(=O)Nc1ccc(C(=O)c2ccccc2)cc1`, the Potency is reported as active: 20.6 µM.
For `O=C(C1CCN(S(=O)(=O)c2ccccc2)CC1)N1CCCCCC1`, the “activity change, negative = growth inhibition” value was inactive: 2.3%.
With `CCc1cccc(CC)c1NC(=S)Nc1cccc(Cl)c1Cl` the Potency was inconclusive: 29.1 µM [inhibitor, single point].
For `COCCCNC(=O)CCCn1c(SCC(=O)c2ccc(F)cc2)nc2c(sc3ccccc32)c1=O`, the “activity change, negative = growth inhibition” value was inactive: -1.64%.
For `CCOc1cc(Br)cc(C2NC(=O)c3c(sc4c3CCN(C)C4)N2)c1O` (stereo not drawn), the Potency was inconclusive: 25.9 µM [inhibitor, single point].
With `Cc1scc(C(=O)N/N=C/c2ccc(OCC(C)C)cc2)c1C` the Potency was inconclusive: 18.4 µM [inhibitor, single point].
For `CCSc1cc(C)nc2c(-c3ccccc3)cnn12`, the Potency was inconclusive: 23.1 µM [inhibitor, single point].
In the case of `Cc1ccc(S(=O)(=O)Nc2cc(C(C)C)c(O)cc2C)cc1`, the Potency is reported as inconclusive: 29.1 µM [inhibitor, single point].
For `O=C(CNC(=O)N1CC(=O)Nc2ccccc21)NCc1cccc(Cl)c1`, the “activity change, negative = growth inhibition” value was inactive: 11%.
With `COCCn1c(=O)cnc2cnc(OCc3ccccc3)nc21` the Potency was inconclusive: 23.1 µM [inhibitor, single point].
In the case of `CC(C)(C)c1ccc(C(=O)NCC(c2ccco2)S(=O)(=O)c2ccc(F)cc2)cc1` (stereo not drawn), the Potency is reported as active: 20.6 µM.
For `CCOC(=O)C1(C)CCCN(C(=O)c2c(-c3ccccc3)noc2C)C1` (stereo not drawn), the Potency was inconclusive: 11.6 µM [inhibitor, partial curve].
In the case of `COc1ccc(C(NC(=O)C2CCN(Cc3ccc(Oc4ccccc4)cc3)CC2)c2ccccc2C)cn1` (stereo not drawn), the Potency is reported as active: 18.4 µM.
In the case of `O=C(CSc1nnc2ccccn12)Nc1ccccc1[N+](=O)[O-]`, the “activity change, negative = growth inhibition” value is reported as inactive: -1.18%.
In the case of `COc1cc(OC)c(OC)cc1CNC(=O)c1cc(=O)c2ccccc2o1`, the Potency is reported as inconclusive: 23.1 µM [inhibitor, single point].
For `c1ccc2c(CSc3ncnc4nc[nH]c34)cccc2c1`, the Potency was inconclusive: 29.1 µM [inhibitor, single point].
In the case of `COc1ccc(-c2cn3cccnc3n2)cc1NC(=O)c1ccc(Br)o1`, the Potency is reported as inconclusive: 7.94 µM [inhibitor, partial curve].
With `O=c1c(-c2cccs2)nc2cncnc2n1-c1ccccc1` the Potency was inconclusive: 29.1 µM [inhibitor, single point].
With `COc1ccccc1OCC(=O)Nc1c2c(nn1-c1ccc(F)cc1)CS(=O)(=O)C2` the “activity change, negative = growth inhibition” value was inactive: -2.31%.
In the case of `COc1ccc(-n2cnc3cc(C(=O)NC4CCCC4)ccc32)cc1`, the Potency is reported as inconclusive: 9.2 µM [inhibitor, single point].
With `Cc1ccc(-c2nnc(SCC(=O)N3CCOCC3)nc2-c2ccc(C)cc2)cc1` the Potency was inconclusive: 23.1 µM [inhibitor, single point].
With `O=C1NC[C@H](Cc2ccccc2)N(C[C@H]2CCCN2C[C@H](Cc2ccccc2)N2C[C@H](Cc3ccccc3)N(CC3CCCCCC3)C(=O)C2=O)C1=O` the Potency was active: 16.4 µM.
In the case of `O=C(CSc1c2c(nc3ccccc13)CCC2)Nc1ccc(F)cc1`, the Potency is reported as inconclusive: 29.1 µM [inhibitor, single point].
For `Cc1cccc(N2CCN(Cc3nnc(-c4ccccc4C)o3)CC2C)c1` (stereo not drawn), the Potency was inconclusive: 29.1 µM [inhibitor, single point].
With `Oc1cccc(/C=N/Nc2cccc3cccnc23)c1` the Potency was inconclusive: 14.6 µM [inhibitor, single point].
With `Cc1cc(C(=O)Nc2cccnc2)no1` the activity change, negative = growth inhibition was inconclusive: -32.4% [inhibitor].
In the case of `CCc1ccc(-c2nn(-c3ccccc3)cc2C2SCC(=O)N2Cc2ccco2)cc1` (stereo not drawn), the Potency is reported as inconclusive: 23.1 µM [inhibitor, partial curve].
For `Cc1ccc(NC(=O)CNC(=O)c2ccc(Br)o2)nc1`, the “activity change, negative = growth inhibition” value was inactive: -5.5%.
For `CCCOc1ccc(C(=O)N(Cc2ccccc2Cl)C2CCS(=O)(=O)C2)cc1` (stereo not drawn), the Potency was inconclusive: 29.1 µM [inhibitor, single point].
In the case of `CCOCCCNCc1cccc(OCc2ccc(F)cc2)c1`, the Potency is reported as inconclusive: 29.1 µM [inhibitor, single point].
For `COc1ccc(C2=Nc3ccc(F)cc3NC(c3cccc(C(F)(F)F)c3)=N2)cc1`, the Potency was inconclusive: 16.4 µM [inhibitor, single point].
For `CC(=O)c1cccc(NC(=S)NC(=O)Cc2ccccc2)c1`, the “activity change, negative = growth inhibition” value was inactive: -17.3%.
In the case of `O=C(/C=C/c1ccccc1)Nc1scc(-c2ccccc2)c1C(=O)O`, the Potency is reported as inconclusive: 16.4 µM [inhibitor, single point].
In the case of `COc1ccccc1NC(=O)c1cnc2c(-c3ccccc3)c(C)nn2c1C`, the Potency is reported as inconclusive: 29.1 µM [inhibitor, single point].
In the case of `CCN(CC)S(=O)(=O)c1cc(C(=O)Nc2cccnc2Cl)ccc1Cl`, the Potency is reported as inconclusive: 29.1 µM [inhibitor, single point].
For `C=CCSc1nc(C)cc2c1C(=O)OC2`, the “activity change, negative = growth inhibition” value was inactive: 4.71%.
In the case of `Cc1nn(C)cc1/C=N\NC(=O)c1ccc2c(c1)c(C)c(C)n2Cc1ccccc1`, the “activity change, negative = growth inhibition” value is reported as inactive: -6.99%.
With `Cc1ccc(S(=O)(=O)Nc2nc3ccccc3s2)cc1[N+](=O)[O-]` the “activity change, negative = growth inhibition” value was inactive: -10.3%.
In the case of `CCOc1ccc(CCNC(=O)C2(c3ccccc3)CC2)cc1OCC`, the Potency is reported as inconclusive: 23.1 µM [inhibitor, single point].
In the case of `CCN(CC)C(c1ccc(C)cc1)c1nnnn1C1CCCCC1` (stereo not drawn), the Potency is reported as active: 18.4 µM.
In the case of `CCS(=O)(=O)c1ccc(C(=O)NC)c(Cl)c1Cl`, the “activity change, negative = growth inhibition” value is reported as inactive: 2.49%.
In the case of `COC(=O)[C@H](C)NC(=O)Nc1cc(Cl)ccc1C`, the “activity change, negative = growth inhibition” value is reported as inactive: -6.75%.
For `S=C1Nc2ccccc2Sc2ccc(Cl)cc21`, the Potency was inconclusive: 16.4 µM [inhibitor, single point].
For `COc1ccc(CNC(=O)CCn2c(=O)c3cccn3c3ccc(F)cc32)cc1`, the Potency was inconclusive: 16.4 µM [inhibitor, single point].
In the case of `NC(N)=N/N=C/c1ccc(OCc2ccccc2)c(OCc2ccccc2)c1`, the Potency is reported as active: 18.4 µM.
In the case of `CCc1ccc(-c2cc(C)no2)cc1S(=O)(=O)N1CCOc2ccc(C)cc21`, the Potency is reported as inconclusive: 25.9 µM [inhibitor, single point].
For `COc1ccc(S(=O)(=O)Nc2cc3c4c(c2)CC(=O)N4CCC3)cc1`, the Potency was inconclusive: 13 µM [inhibitor, single point].
In the case of `COC(=O)c1ccccc1NC(=O)c1cnc(Nc2ccc(OC)cc2)c2ccccc12`, the Potency is reported as active: 9.2 µM.
With `COCCn1c(=O)c(-c2ccccc2)nc2cnc(Nc3ccccc3)nc21` the “activity change, negative = growth inhibition” value was inactive: -9.89%.
With `CCn1nc(NC(=O)c2ccco2)c2cc3cc(C)ccc3nc21` the Potency was inconclusive: 29.1 µM [inhibitor, single point].
In the case of `C(=Nc1cnc2ccccc2c1)c1ccncc1`, the “activity change, negative = growth inhibition” value is reported as inactive: -9.82%.
With `CCOc1ccccc1N(CC(=O)NC1CCCCC1)S(=O)(=O)c1ccc(C)cc1` the Potency was active: 20.6 µM.
In the case of `Cc1nn(-c2ccccc2)c(N2CCCC2)c1/C=N/NC(=O)C1CC1`, the Potency is reported as inconclusive: 25.9 µM [inhibitor, single point].
For `CCCS(=O)(=O)NCc1c(C)ncc2c1CCN(C(=O)c1ccc(F)c(F)c1)C2`, the “activity change, negative = growth inhibition” value was inactive: 2.82%.
